From paper PMC4336329 (PLoS ONE, 2015)
Screen size: about 310,000 compounds; about 14,000 (4.5%) showed an effect of 50% or more. Effects have a minus sign here. This is one part of the list.

Target: human ether-à-go-go-related gene (hERG) potassium channel (human, UniProt Q12809)
Assay: primary screen, population patch clamp on CHO cells stably expressing hERG
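Note: peak tail current of the secondary pulse compared with the same well before compound.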

human ether-à-go-go-related gene (hERG) potassium channel, sequence (Q12809 whole entry, looked up): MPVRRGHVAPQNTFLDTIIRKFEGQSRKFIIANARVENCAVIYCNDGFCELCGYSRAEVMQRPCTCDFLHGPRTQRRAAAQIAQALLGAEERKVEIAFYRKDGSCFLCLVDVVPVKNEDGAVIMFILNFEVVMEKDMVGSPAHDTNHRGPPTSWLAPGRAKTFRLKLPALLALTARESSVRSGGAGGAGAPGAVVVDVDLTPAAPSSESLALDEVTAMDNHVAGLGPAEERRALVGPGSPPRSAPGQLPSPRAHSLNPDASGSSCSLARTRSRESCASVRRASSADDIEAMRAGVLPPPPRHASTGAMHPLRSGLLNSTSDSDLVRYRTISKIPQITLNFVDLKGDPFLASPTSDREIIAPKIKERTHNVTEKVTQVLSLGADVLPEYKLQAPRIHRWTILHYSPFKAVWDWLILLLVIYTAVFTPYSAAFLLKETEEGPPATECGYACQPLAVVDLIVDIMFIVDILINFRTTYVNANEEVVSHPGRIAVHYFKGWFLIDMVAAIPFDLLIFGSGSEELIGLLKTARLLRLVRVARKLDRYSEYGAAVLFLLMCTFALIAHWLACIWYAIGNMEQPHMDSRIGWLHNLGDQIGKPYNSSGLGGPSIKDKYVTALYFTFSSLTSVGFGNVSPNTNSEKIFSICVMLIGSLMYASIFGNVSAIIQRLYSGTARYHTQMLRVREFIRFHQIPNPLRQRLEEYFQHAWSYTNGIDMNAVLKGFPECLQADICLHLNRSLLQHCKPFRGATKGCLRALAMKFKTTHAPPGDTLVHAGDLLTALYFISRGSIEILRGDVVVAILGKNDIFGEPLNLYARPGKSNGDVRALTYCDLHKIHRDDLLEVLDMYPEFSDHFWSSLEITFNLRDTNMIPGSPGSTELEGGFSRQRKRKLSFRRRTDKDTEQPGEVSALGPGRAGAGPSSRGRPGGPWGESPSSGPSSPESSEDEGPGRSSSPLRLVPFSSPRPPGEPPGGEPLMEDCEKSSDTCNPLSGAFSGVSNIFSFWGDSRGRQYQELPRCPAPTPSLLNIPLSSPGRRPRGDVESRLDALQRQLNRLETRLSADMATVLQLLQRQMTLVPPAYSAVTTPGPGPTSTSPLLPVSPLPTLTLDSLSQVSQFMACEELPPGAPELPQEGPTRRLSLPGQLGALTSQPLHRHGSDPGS

Structure (SMILES)	hERG current change (%, negative = inhibition) at 10uM [%]
CC(C(=O)Nc1ccc(Br)cc1C(=O)c1ccccc1)N1CCCCC1 (stereo not shown)	-24.8
COc1ccc2nc(Nc3nc(CSc4nnc(C)s4)cc(=O)[nH]3)nc(C)c2c1	-1.31
Cc1ccccc1N1C(=O)C(Cl)=C(N2CCN(c3ccccc3)CC2)C1=O	3.27
BrCC(Br)(Br)Br	11
COc1ccc(NC2CCCN(C(=O)CCn3cccn3)C2)cc1 (stereo not shown)	8.98
COC(=O)c1ccc(C(=O)Nc2ccc(C(C)C)cc2N)cc1	22.2
COc1cccc2c(SCC(=O)N/N=C/c3ccccc3)cc(C)nc12	0.116
COc1cc(C(=O)NCCC(=O)N2CCCCC2)cc(OC)c1OC	22.3
Cc1ccc(CCNC(=O)CCS(=O)(=O)c2ccc3nc(C)sc3c2)cc1	1.44
Cc1ccc(-n2ncc3c2CC(C)(C)CC3NC(=O)c2c(C)noc2C)cc1 (stereo not shown)	-14.7
COc1ccc(/C=N/Nc2nc(Nc3ccccc3)nc(N3CCCCC3)n2)c(OC)c1	7.24
Cc1cc(NC(=O)Nc2ccccc2F)ccc1Br	15.7
CN(C1CCCCC1)S(=O)(=O)c1ccc(C(=O)N2CCN(c3nc4ccccc4s3)CC2)cc1	17.6
O=C(CSc1ccc(-c2ccccn2)nn1)NC1CCCCC1	-14
CCc1ccc(OCC(=O)Nc2ccc(S(=O)(=O)N3CCOCC3)cc2)cc1	-6.92
O=C(O)c1ccc2c(c1)N(Cc1ccccc1)C(=O)c1ccccc1S2=O (stereo not shown)	21.1
Cc1[nH]c2ccccc2c1C(=O)C(=O)N1CC(C)OC(C)C1 (stereo not shown)	15.8
Cc1cccc(OC(=O)CCN2C(=O)C3C4C=CC(C5CC45)C3C2=O)c1C (stereo not shown)	-0.833
O=C(CN1CCCCCCC1)NC(=O)NC1CCCCC1	6.71
CN1CCc2nc3ccccc3c(C(=O)OCC(=O)N(CCC#N)c3ccccc3)c2C1	-9.44
O=C(N/N=C/c1sc2ccccc2c1O)c1cccc2ccccc12	-5.97
Cc1ccc(S(=O)(=O)/N=C2/NC(=O)/C(=C/c3ccncc3)S2)cc1	24

Structure (SMILES)	hERG current change (%, negative = inhibition) at 10uM [%]
COc1cc2c(cc1OC)CN(c1nc(CN3CCCC3)nc3sc(C)c(C)c13)CC2	-75.6
COc1ccc(CCN(Cc2ccccn2)C(=S)Nc2ccccc2Cl)cc1OC	-12
CC(C)C(=O)NC(=S)NCC(=O)c1ccccc1	-17.3
CCc1ccc(NC(=O)CCc2ccc(CC)o2)cc1	-4.1
COc1cc(CO)c(Br)cc1OCC(N)=O	10.7
Cc1noc(C)c1COC(=O)c1ccccc1NC(=O)c1ccco1	-26.4
COc1ccccc1NC(=O)C1CCCN(C(=O)Nc2ccc(F)cc2)C1 (stereo not shown)	-5.46
Cc1cc(Cl)c(OCCN2C(=O)NC(C)(C)C2=O)c(Br)c1	-4.37
CCOC(=O)C1=C(C)C(c2ccc(OC)cc2)NC(=S)N1 (stereo not shown)	1.73
Cc1ccc2sc(N(CCCN(C)C)C(=O)c3ccc(S(=O)(=O)N4CCc5ccccc5C4)cc3)nc2c1C.Cl	13.6
Cc1c(NC(=O)C(C)OC(=O)c2cccc([N+](=O)[O-])c2)c(=O)n(-c2ccccc2)n1C (stereo not shown)	-15.5
Cc1ccc(NS(=O)(=O)c2cccc(C(=O)NN3CCOCC3)c2)cc1	0.89
CS(=O)(=O)N1CCC(C(=O)Nc2ccc(C(F)(F)F)cc2)CC1	12.4
Cc1ccc(C(=O)NC2c3ccccc3-c3ccccc32)cc1	11.9
CCOc1ccc(-c2cccc(NC(=O)COc3ccccc3)c2)nn1	-8.09
CCCN1Cc2cccc(C(=O)NCCCOC(C)C)c2C1=O	2.91
COc1ccc(/C=N/NC(=O)C(=O)N2CCCC2)cc1OC	-0.229
O=C(CSc1nc2sc3c(c2c(=O)n1-c1ccccc1)CCCC3)NCc1ccco1	14.9
Cc1ccc(OCC(=O)N2CCCCCCC2)cc1	7.87
COc1cc(OC)cc(C(=O)NCC(=O)NC(C)CCc2ccccc2)c1 (stereo not shown)	-21.6
Cc1ccccc1NS(=O)(=O)c1ccc(C(=O)NCCCN2CCOCC2)cc1	9.08
N#Cc1c(N)c(C(=O)c2ccccc2)n2c1CCC2	18

Structure (SMILES)	hERG current change (%, negative = inhibition) at 10uM [%]
CC(O)CNC12CC3CC(CC(C3)C1)C2 (stereo not shown)	12
CN(C)c1ccc(/C=C2\SC(=O)N(CCc3nnc(N)s3)C2=O)cc1	-0.427
CCCCC(=O)Nc1ccc(NC(=S)NC(=O)c2ccco2)cc1OC	-1.48
COc1cccc(NC(=O)CN(C)C(=O)CN2C(=O)c3ccc([N+](=O)[O-])cc3C2=O)c1	-1.51
Cn1c(N)c(N2CCN(c3ccccc3)CC2)c(=O)[nH]c1=O	19.4
CCN1CCN(S(=O)(=O)c2ccc(C(=O)Nc3ccccc3)cc2)CC1	-0.152
COC(=O)c1c(C)oc(C)c1S(=O)(=O)NCc1ccc(Cl)cc1Cl	-10.5
Oc1sc(C=Nc2ccc(F)cc2)c2ccccc12	16.7
CCCCCN(C(=O)CCC(=O)OCC(=O)c1ccc(C(C)(C)C)cc1)c1c(N)n(CCCC)c(=O)[nH]c1=O	-33.7
O=C(CSc1nnnn1-c1ccccc1)Nc1ncc(Cc2ccccc2Cl)s1	10.3
O=C(Nc1ccc2nc3n(c(=O)c2c1)CCCC3)c1ccc(Cl)nc1	-6.33
CCOC(=O)c1c(NC(=O)Cn2nc(C(F)(F)F)cc2C)sc(C)c1C	0.402
Cc1ccc(CNC(=O)CN(C(=O)N2CCN(C)CC2)S(=O)(=O)c2ccc(C)cc2)cc1	15.7
Cc1cccc(OCCn2nnc3ccccc32)c1C	11.3
COC(=O)c1cc(OC)c(OC)cc1NC(=S)N1CCN(C/C=C/c2ccccc2)CC1	-8.96
CCCc1nnc(NC(=O)CSc2nnc(-c3ccco3)n2C)s1	14.6
COC(=O)C1=C(c2ccccc2)C[C@@H]2CC[C@H]1N2C(=O)N1CCC(O)CC1	-0.795
CCOC(=O)c1cnc2ccc(C)cc2c1Sc1ccccc1C(=O)OC	-2.26
COc1ccc(-n2ncc3c(=O)n(CC(=O)N(C(C)C)C(C)C)cnc32)cc1	0.562
Cc1ccc(S(=O)(=O)N(Cc2cccc(F)c2)C(=O)N2CCN(C)CC2)cc1	33.1
CCSc1nc(N2CCOCC2)c2c(c1C#N)CCCC2	-7.06
Cn1cc([N+](=O)[O-])c(C(=O)NNC(=O)c2ccc([N+](=O)[O-])cc2)n1	11.4

Structure (SMILES)	hERG current change (%, negative = inhibition) at 10uM [%]
Cc1cc(C)n(C(=O)CNc2cccc(Cl)c2C)n1	13.1
O=C1Nc2ccccc2S/C1=C/NCc1ccccc1Cl	9.93
O=C1CC(N(C(=O)c2ccco2)c2cccc(Cl)c2)C(=O)N1c1cccc(Cl)c1 (stereo not shown)	-19.7
C=CCN(C(=O)Nc1ccccc1)C1CC(=O)N(c2ccc(OC)cc2)C1=O (stereo not shown)	-5.09
C=CCSC1=C(C#N)C(c2ccccc2OCC)CC(=O)N1 (stereo not shown)	-8.03
NC(=O)C1(C(N)=O)OC1c1ccccc1 (stereo not shown)	-0.285
CN1C(C(=O)NCc2cccc(Br)c2)CC2Cn3c(nc4cc(Cl)c(Cl)cc43)C21 (stereo not shown)	-75.8
O=C(CN1CCN(Cc2ccc(Cl)cc2)C1=O)NCCN1CCCC1	1.66
COc1cc(C(=O)Nc2cccc3cccnc23)cc(OC)c1OC	-22.3
CC(C)CCOP(=O)(c1ccc(N(C)C)cc1)C(O)c1ccccc1F (stereo not shown)	-4.54
Cc1nc(NC(C)C(=O)O)c2nc(C)oc2n1 (stereo not shown)	-17.7
CCOC(=O)N1CCN(C(=O)COC(=O)CSc2ccc([N+](=O)[O-])cc2)CC1	-23.3
CC1=NNC(=O)C1CC(=O)N/N=C/C(Br)=C/c1ccccc1 (stereo not shown)	9.09
CCC(C)/C(C)=N/NC(=O)c1cn(-c2ccccc2)nc1-c1ccccc1 (stereo not shown)	-20.5
Cc1cc(CNC(=S)Nc2cccc(Cl)c2Cl)nn1C	18.7
CNC(=O)CN(c1cc(OCCOC)c(Cl)cc1Cl)S(=O)(=O)c1ccc(OC)cc1	-14.7
COc1ccc(NC(=O)CSc2ccccc2)cc1S(=O)(=O)N1CCOCC1	-20.9
CN1CCN(C(=S)C(=O)Nc2ccc(Br)cc2)CC1	-6.92
Cc1noc(C)c1COc1cccc(C(=O)N(C)Cc2nc3ccccc3c(=O)[nH]2)c1	-23.5
CCCCNC(=S)NNC(=O)c1csc2c1CCC(C)C2 (stereo not shown)	-1.23
O=C(/C=C/c1ccccc1)Nc1nnc(-c2ccco2)o1	-6.55
O=C(Nc1cccc(Br)c1)c1ccc2nc(N3C(=O)CCC3=O)sc2c1	16
